Reference: PubChem BioAssay AID1645882 (National Center for Advancing Translational Sciences (NCATS), 2021)
In all, about 16,000 compounds went through this assay and about 120 (0.75%) were called active. Roughly 4% stayed inconclusive and do not appear here. Calls come from the whole dose curve; as a rule, active = well fitted inhibition curve with a large enough effect; inconclusive = small, poorly fitted or top-dose-only effect; inactive = no such curve, though single readings can be large or run the other way. The list shows a part of the results.

These molecules were tested against Rap guanine nucleotide exchange factor 3 (Homo sapiens) (UniProt O95398) (assay: Validation qHTS for antagonist of cAMP-regulated guanine nucleotide exchange factor 3 (EPAC1)). Conditions: EPAC1 Rap1B-BODIPY-GDP exchange, fluorescence; series mostly up to 150 µM; activity change, negative = inhibition: at the top concentration.
Procedure, shortened: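 EPAC1 (100 nM) mixed with 250 nM RAP1B-BODIPY-GDP and 50 uM GDP; compounds in concentration series, 5 min at room temperature. Fluorescence (ex 480/em 540 nm) read every 5 min for 30 min; normalized to ATA control and DMSO.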
Note: nearly all actives have a fitted effect of over 75% in size.
Potency is the fitted concentration of half-maximal effect.
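Throughout, for activity change, negative = inhibition: plate controls were DMSO for no effect and ATA control for full effect.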

Chain of UniProt O95398 (O95398 whole entry, looked up): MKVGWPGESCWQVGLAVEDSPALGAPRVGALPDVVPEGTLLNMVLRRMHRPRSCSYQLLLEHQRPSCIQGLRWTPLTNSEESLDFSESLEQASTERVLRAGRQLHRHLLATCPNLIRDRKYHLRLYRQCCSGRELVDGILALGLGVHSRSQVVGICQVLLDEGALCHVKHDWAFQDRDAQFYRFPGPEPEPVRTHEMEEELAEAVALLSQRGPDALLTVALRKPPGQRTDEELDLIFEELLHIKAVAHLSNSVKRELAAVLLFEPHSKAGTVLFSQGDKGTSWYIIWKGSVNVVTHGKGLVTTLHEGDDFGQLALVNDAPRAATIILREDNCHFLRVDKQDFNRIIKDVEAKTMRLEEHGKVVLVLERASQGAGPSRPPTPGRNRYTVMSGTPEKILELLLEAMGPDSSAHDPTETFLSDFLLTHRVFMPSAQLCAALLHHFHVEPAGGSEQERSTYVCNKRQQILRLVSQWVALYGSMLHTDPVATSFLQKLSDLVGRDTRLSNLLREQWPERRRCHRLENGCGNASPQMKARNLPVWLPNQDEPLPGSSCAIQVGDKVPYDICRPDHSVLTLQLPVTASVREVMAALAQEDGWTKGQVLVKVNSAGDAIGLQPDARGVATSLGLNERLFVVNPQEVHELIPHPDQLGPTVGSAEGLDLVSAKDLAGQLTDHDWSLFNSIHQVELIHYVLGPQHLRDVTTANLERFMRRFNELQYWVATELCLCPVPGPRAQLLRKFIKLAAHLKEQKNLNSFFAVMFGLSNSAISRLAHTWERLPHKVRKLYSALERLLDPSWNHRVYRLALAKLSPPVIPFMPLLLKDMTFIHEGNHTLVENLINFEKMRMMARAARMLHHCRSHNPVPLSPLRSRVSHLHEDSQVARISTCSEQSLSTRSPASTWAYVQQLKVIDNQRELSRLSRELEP

| Structure (SMILES) | activity change, negative = inhibition | Potency |
| --- | --- | --- |
| O=C1CC[C@H](O)CCN1[C@H](CSc1ccccc1)Cc1ccccc1 | inactive: 15.5% | – |
| COCC1CCCN(Cc2ccc3c(c2)CN(C(=O)c2cn4ccc(C)cc4n2)CCO3)C1 (configuration not stated) | inactive: 16% | – |
| Cc1cnc(C)c(-c2ccc(F)c3c2OC(CNC(=O)/C=C/c2cccs2)C3)n1 (configuration not stated) | inactive: -10.8% | – |
| CCNc1ncc2nc(-c3ccccc3)c(=O)n(C[C@H]3CCCO3)c2n1 | inactive: 13% | – |
| Cc1cc(Nc2ccccc2C(=O)O)ccc1Cl | inactive: 23.7% | – |
| O=Cc1ccc(O)cc1 | inactive: 23.5% | – |
| N[C@@H](Cc1ccc(O)c(I)c1)C(=O)O | inactive: -7.65% [at 75.8 µM] | – |
| OC[C@H]1O[C@H](n2cnc3c(NC4CCCC4)nc(Cl)nc32)[C@@H](O)[C@@H]1O | inactive: 9.08% | – |
| Clc1cccc[n+]1CCCC[n+]1ccccc1Cl | inactive: 7.67% | – |
| O=C(c1cnccn1)N1CCC[C@@]2(CCN(Cc3cc(C(F)(F)F)cc(C(F)(F)F)c3)C2)C1 | inactive: -13.1% | – |
| Nc1ccc(S(=O)(=O)Nc2ccccn2)cc1 | inactive | – |
| CN1[C@@H]2CC[C@H]1CC(OC(c1ccccc1)c1ccccc1)C2 (some centres not stated) | inactive | – |
| Cc1c(CCO)sc[n+]1CC(=O)c1ccc(F)cc1 | inactive: 7.71% | – |
| O=C(CCN1CCC(c2ccccc2)C1)c1ccc2c(c1)OCCO2 (configuration not stated) | inactive: 12.5% | – |
| C[C@H](NC(=O)OC(C)(C)C)C(=O)c1ccco1 | inactive: 0.368% | – |
| c1ccc(CC[n+]2ccncc2)cc1 | inactive: -0.642% | – |
| c1ccc2nc(C3=NCCN3)ccc2c1 | inactive | – |
| C=C[C@@H]1c2cc(C)ccc2N(S(=O)(=O)c2ccc(C)cc2)[C@H](c2ccccc2)C1(C#N)C#N | inactive: -0.615% | – |
| COc1ccc(C(=O)N2CCC3(CC2)CN(C(=O)Nc2cccc(C#N)c2)C3)cc1 | inactive: 23.4% | – |
| CC12CCCC(O)(C1)C1CC(C)(C)C1CC2 (configuration not stated) | inactive: -2.91% | – |
| CC(C)(C)c1ccc(C(O)CCCN2CCC(C(O)(c3ccccc3)c3ccccc3)CC2)cc1 (configuration not stated) | inactive | – |
| CC(COc1ccccc1)NC(C)C(O)c1ccc(O)cc1 (configuration not stated) | inactive | – |
| Cc1cc(=O)oc2c(O)c(O)ccc12 | inactive: 1.89% | – |
| N#Cc1cccc(-c2nc3cnc(N4CCOCC4)nc3n(C3CC3)c2=O)c1 | inactive: 14.2% | – |
| NCCCNCCSP(=O)(O)O | inactive | – |
| CC[C@@H](C(=O)[C@@H](C)[C@@H](O)[C@H](C)CCc1ccc(C)c(O)c1C(=O)O)[C@H]1O[C@](CC)([C@H]2CC[C@](O)(CC)[C@H](C)O2)C[C@@H]1C | inactive: 9.78% | – |

| Structure (SMILES) | activity change, negative = inhibition | Potency |
| --- | --- | --- |
| O=C(O)CCCC/C=C(\c1ccccc1)c1cccnc1 | inactive: 9.21% | – |
| CC[C@]1(c2ncc[nH]2)Cc2ccccc2O1 | inactive: 10.2% | – |
| COc1ccc(C(=O)NCC2Cc3cccc(-c4cncnc4)c3O2)c(OC)c1OC (configuration not stated) | inactive: -13.9% | – |
| O=C(O)CCC/C=C\C[C@@H]1[C@@H](/C=C/[C@@H](O)COc2cccc(Cl)c2)[C@H](O)C[C@@H]1O | inactive | – |
| c1ccc(Nc2ncnc3ccc(-c4cccnc4)cc23)cc1 | inactive: 0.432% | – |
| C[C@@H]1C[C@@H]2[C@H]3CCC4=CC(=O)C=C[C@]4(C)[C@]3(F)[C@@H](O)C[C@@]2(C)[C@@]1(O)C(=O)CO | inactive: 1.78% | – |
| COC(=O)N1CCC2(CCCN(Cc3ccc(C#N)cc3)C2)CC1 | inactive: 7.53% | – |
| COC(=O)Oc1ccccc1C(=O)O | inactive: 3.73% | – |
| N#CCCN1CCN(Cc2ccccc2)CCC1=O | inactive: 12.5% | – |
| COC(=O)[C@@H]1CCCN1Cc1ccc2c(c1)CN(Cc1coc3ccccc3c1=O)CCO2 | inactive: 23.4% | – |
| COCC(=O)Nc1cc(C(=O)N2CCN(c3ccc(Cl)cn3)CC2)c2c(c1)nc(C1CCC1)n2C | inactive: 9.32% | – |
| S=c1[nH]c2ccccc2s1 | inactive | – |
| CC(=O)c1c(O)cc(O)cc1O | inactive: 12.7% | – |
| COCC(=O)N1CCC2(CCN(Cc3ccccc3)CC2)CC1 | inactive: 13.5% | – |
| O=C(O)C1(O)CC(O)C(O)C(O)C1 (configuration not stated) | inactive: 19% | – |
| COCC(=O)N1CCC[C@@]2(CCN(C(=O)Nc3cccc(F)c3)C2)C1 | inactive: 5.96% | – |
| Cc1cc(N(C)C)cc(C)c1/C=C/c1cc[n+](C)c2ccccc12 | inactive: 11.3% | – |
| COc1cc(CN2CCCC(n3cc(C(=O)N4CCCCC4)nn3)C2)cc2c1OCO2 (configuration not stated) | inactive: 8.49% | – |
| CCCCN1CCCCC1C(=O)Nc1c(C)cccc1C (configuration not stated) | inactive: 5.29% | – |
| CCOC(=O)NNc1nncc2ccccc12 | inactive | – |
| Cc1cnc(CNc2ncncc2-c2ccccc2Cl)cn1 | inactive: -2.39% | – |
| O=C1CC[C@@H](OCc2ccccc2)CCN1CC[C@H](Sc1ccccc1)c1ccccc1 | inactive: -3.48% | – |
| O=C(NCc1ccncc1)c1cnn(-c2nccc(-c3cc4ccccc4o3)n2)c1C1CC1 | inactive: 13.7% | – |
| CN(C)c1ncc2nc(-c3ccccc3)c(=O)n(CCC#N)c2n1 | inactive: 10.5% | – |
| CN1CCCCC1CCN1c2ccccc2Sc2ccc(S(C)=O)cc21 (configuration not stated) | inactive | – |
| O=C(NC1CCN(Cc2ccccc2)CC1)c1ccc(I)cc1 | inactive | – |

| Structure (SMILES) | activity change, negative = inhibition | Potency |
| --- | --- | --- |
| CC(C)c1ccc2c(c1)c(SC(C)(C)C)c(CC(C)(C)C(=O)O)n2Cc1ccc(Cl)cc1 | – | active: 28.2 µM |
| CC(C)C(NC(=O)c1ccoc1)c1nnc2n1CCN(Cc1ccc3c(c1)Cc1ccccc1-3)CC2 (configuration not stated) | inactive: -2.82% | – |
| CC(CCC(=O)O)C1CCC2C3CC(O)[C@@H]4CC(O)CC[C@]4(C)C3CC[C@@]12C (some centres not stated) | inactive: 1.14% | – |
| CS(=O)(=O)Nc1cccc(-c2cncnc2NCc2cccs2)c1 | inactive: 1.29% | – |
| CN(Cc1ccco1)c1ncnc2ccc(-c3ccccc3C(F)(F)F)cc12 | inactive: -22.9% | – |
| COc1ccc2[nH]cc(CCNc3ncncc3-c3ccccc3CN(C)C)c2c1 | inactive: -7.45% | – |
| O=c1ccc2ccc(O[C@@H]3O[C@H](CO)[C@@H](O)[C@H](O)[C@H]3O)c(O)c2o1 | inactive: 7.79% | – |
| CCN(CCO)CCCC(C)Nc1ccnc2cc(Cl)ccc12 (configuration not stated) | inactive | – |
| CCC[C@H]1COCCS(=O)(=O)N1Cc1ccccc1 | inactive: 21.1% | – |
| C=C(C)C1CC=C(CO)CC1 (configuration not stated) | inactive: 8.05% | – |
| Cc1nc(Nc2ncc(C(=O)Nc3c(C)cccc3Cl)s2)cc(N2CCN(CCO)CC2)n1 | inactive: 0.311% | – |
| CC(C)CN1CCCC2(CCN(C(=O)c3cnccn3)CC2)C1 | inactive: 18% | – |
| CON | inactive: 18.4% | – |
| CCc1nc2cc(C(=O)N3CCC[C@H]3C(=O)OC)cc(NC(=O)c3ccccc3OC)c2n1C | inactive: 5.19% | – |
| COCCn1c(=O)c(-c2ccc(F)cc2)nc2cnc(OC)nc21 | inactive: 20% | – |
| COc1ccc(-c2nc3cc(F)ccc3cc2CN(C(=O)c2cccc(OC)c2)C2CC2)cc1 | inactive: 7.85% | – |
| CN(C)c1ccc(C(=C2C=CC(=[N+](C)C)C=C2)c2ccc(N(C)C)cc2)cc1 | inactive | – |
| O=C(NCCc1nnc2n1CCN(Cc1ccsc1)CC2)c1ccc(F)cc1 | inactive: 0.369% | – |
| CC(=O)NCCNc1ncnc2ccc(-c3ccccc3C)cc12 | inactive: 7.27% | – |
| CCC(=O)c1ccc2c(c1)N(CCCN1CCN(CCO)CC1)c1ccccc1S2 | inactive: 2.49% | – |
| COc1ccc(CC2c3cc(OC)c(OC)cc3CC[N+]2(C)CCC(=O)OCCCCCOC(=O)CC[N+]2(C)CCc3cc(OC)c(OC)cc3C2Cc2ccc(OC)c(OC)c2)cc1OC (configuration not stated) | inactive | – |
| COc1ncc2ncc(=O)n(CCC#N)c2n1 | inactive: 10.7% | – |
| CC(=O)[C@H]1CC[C@H]2[C@@H]3CC=C4C[C@@H](O)CC[C@]4(C)[C@H]3CC[C@]12C | inactive: 1.08% | – |
| CCC1C(=O)NCCN1Cc1ccc2c(c1)CN(Cc1cccc(OC)c1OC)CCO2 (configuration not stated) | inactive: -1.28% | – |
| CSc1nc(N)c2ncn([C@@H]3O[C@H](COP(=O)(O)OP(=O)(O)O)C(O)[C@H]3O)c2n1 (some centres not stated) | inactive: 1.58% [at 75.8 µM] | – |
| O=C(OCC(COC(=O)c1cccnc1)(COC(=O)c1cccnc1)COC(=O)c1cccnc1)c1cccnc1 | inactive: 25.4% | – |

| Structure (SMILES) | activity change, negative = inhibition | Potency |
| --- | --- | --- |
| COc1cccc(CN2CCC(n3cc(C(=O)N4CCCCC4)nn3)CC2)c1OC | inactive: 6.54% | – |
| O=S(=O)([O][Al])OC[C@H]1O[C@@](COS(=O)(=O)[O][Al])(O[C@H]2O[C@H](COS(=O)(=O)[O][Al])[C@@H](OS(=O)(=O)[O][Al])[C@H](OS(=O)(=O)[O][Al])[C@H]2OS(=O)(=O)[O][Al])[C@@H](OS(=O)(=O)[O][Al])[C@@H]1OS(=O)(=O)[O][Al] | inactive: 16.4% | – |
| COc1ccc(-c2nc3cnc(N4CCNCC4)nc3n(Cc3ccc(F)cc3)c2=O)cc1 | inactive: 7.48% | – |
| COc1cccc(-c2ccc3ncnc(NCCc4c[nH]c5ccc(OC)cc45)c3c2)c1 | inactive: -14.1% | – |
| Oc1cc2c(cc1O)[C@@H]1c3ccc(O)c(O)c3OC[C@]1(O)C2 | inactive: -8.55% | – |
| CC(C(=O)O)c1ccc2c(c1)CC(=O)c1ccccc1S2 (configuration not stated) | inactive: 33.1% | – |
| O=C1CC(CC(=O)N2CC3CCCC2C3)(c2cccc(F)c2)C(=O)N1Cc1cccnc1 (configuration not stated) | inactive: -0.543% | – |
| COc1cccc(Nc2ncc3nc(C)c(=O)n(C4CC4)c3n2)c1 | inactive: 7.2% | – |
| Clc1ccc(N2CCN(Cc3c[nH]c4ncccc34)CC2)cc1 | inactive | – |
| Cc1nc(-c2ccc(OCC(C)C)c(C#N)c2)sc1C(=O)O | inactive: 40.7% | – |
| O=c1ccn([C@@H]2O[C@H](COP(=O)(O)OP(=O)(O)OP(=O)(O)O)[C@@H](O)[C@H]2O)c(=O)[nH]1 | inactive: 1.9% | – |
| O=C(c1cnccn1)N1CCC2(CC1)CCN(c1ccccc1)CC2 | inactive: 17.5% | – |
| COc1ccc(C(=O)N2CCC3(CCCN(c4ncccn4)C3)CC2)cc1 | inactive: 11% | – |
| COc1ccc2cc([S+]([O-])Cc3ncc(C)c(OC)c3C)nc2c1 | inactive: -8.58% [at 75.8 µM] | – |
| CCNc1ncc2nc(C)c(=O)n(-c3ccc(OC)cc3)c2n1 | inactive: 18.4% | – |
| C[C@@H](O)[C@H]1C(=O)N2C(C(=O)[O-])=C(SC3Cn4cnc[n+]4C3)[C@H](C)[C@H]12 (some centres not stated) | inactive: 29.7% | – |
| COCCNc1nc(-c2ccccc2C)nc2ccccc12 | inactive: -9.25% | – |
| c1ncc(CC2CCNCC2)[nH]1 | inactive | – |
| Cn1ccc2cc3c(cc21)CCN3C(=O)Nc1cccnc1 | inactive | – |
| Cc1oc(-c2ccccc2NC(=O)c2cccnc2)nc1CNC(=O)c1ccc(N(C)C)cc1 | inactive: 10.2% | – |
| Cc1cnc(CNc2ncnc3ccc(-c4ccc5c(c4)OCO5)cc23)cn1 | inactive: 3.77% | – |
| CC(C)CCCC(C)C1CCC2C3=CC[C@@H]4CC(O)CC[C@@]4(C)C3CC[C@]21C (some centres not stated) | inactive: -17.4% | – |
| Cc1occc1C(=O)Nc1cccc(-c2nc(CNC(=O)c3cccc(C#CC(C)(C)O)c3)c(C)o2)c1 | inactive: 13.3% | – |
| C=CCc1cccc(C=NNC(=O)CN2CCN(Cc3ccccc3)CC2)c1O | inactive: -1.65% [at 75.8 µM] | – |
